According to patent US20030180349A1, “Respiratory infection prevention and treatment with terpene-containing compositions” (priority 2001, published 2003):

Test system: E. coli strain AW574
Conditions: single terpene 2 μMol; bacterial growth compared to control, 24 hours

| SMILES | % growth [%] |
| --- | --- |
| C=C(C)C1CC=C(C)C(=O)C1 (stereo not drawn) [Carvone] | 63.00 |
| CC(=O)/C=C/C1=C(C)CCCC1(C)C [b-ionone] | 84.00 |
| CC(C)=CCC/C(C)=C/CO [Geraniol] | 54.00 |
